This note sets out measurements from PubChem BioAssay (NCI).

This experiment has as its system NCI-H322M lung. Description: growth of human tumour cells (NCI), 48 h.

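Dose response: 5 concentrations. Exposure: 48 h. Format: 96-well plates. Endpoint: linear interpolation; highest concentration if not reached. At the GI50, growth is halved. The concentration for full growth arrest is given as TGI.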

For the compound `Cc1nc(C)c(N2CCN(C(=O)O)CC2)c(=O)[nH]1`, the TGI is > 100 µM. Same read-out and setting: to `CC(C)CCC[C@@H](C)C1CCC2[C@@H]3CCC4C[C@@H](NS(C)(=O)=O)CC[C@]4(C)C3CC[C@@]21C` (stereo not given in full) belongs > 100 µM; to `[N-]=[N+]=Nc1ccc2c(c1)Sc1ccccc1N2CCCCN1CCN(Cc2ccc(C(=O)c3ccc(CSCC(N)C(=O)O)cc3)cc2)CC1` (stereo not given), 57.7 µM.

As for `Cc1ccc(-c2nc3cc(Cl)c(Cl)cc3nc2C#N)cc1`, the GI50 is > 100 µM and the TGI is > 100 µM. `COc1ccccc1-n1c(NN)nc2ccc(Br)cc2c1=O`: the TGI is > 100 µM. For `O=C(Nc1cccc(-n2cc(-c3ccncc3)c(-c3ccc(O)c(Cl)c3)n2)c1)c1cc(C(F)(F)F)cc(C(F)(F)F)c1`, the GI50 was 15.1 µM and the TGI is > 50 µM. `COC(=O)c1cc(NC(=O)c2cc(NC(=O)Cc3c[nH]c4ccccc34)cn2C)cn1C` yielded a TGI of 68.5 µM. Same read-out and setting: the value for `Cc1cc(C)c2c(=O)n(CC(O)CN3CCN(CCOCCO)CC3)sc2n1` (stereo not given) was > 100 µM.

`Cc1n[n+]([O-])c(C)cc1[N+](=O)[O-]`: the TGI came out at 30.7 µM. As to `COc1ccc(-c2ccccc2)c2[nH]c3c(c12)CCNC3=O`, the TGI was > 100 µM. The same measure, in the same setting: to `CC(C)CC1c2[nH]c3ccccc3c2C[C@H]2C(=O)NC(CCCCNC(=O)OC(C)(C)C)C(=O)N12` (stereo not given in full) belongs > 100 µM. Still for that read-out and setting: the value for `COC(=O)n1c(C)c(C=O)c2ccc(OC)cc21` was > 100 µM; that for `Clc1ccc(CCc2ccncn2)c(Cl)c1` was > 100 µM; that for `CCCCCCSCC/C(C)=N\OC` was > 100 µM. With `O=C1c2cccnc2C(=O)c2c1c(C(=O)NCCn1ccnc1)c1ccccn21`, the GI50 is 2.51 µM and the TGI worked out at 8.59 µM.

With `COc1cc(OC)c2c(=O)c3c([N+](=O)[O-])cccc3n(C)c2c1`, the TGI was > 100 µM.

Regarding `Nc1cc(S(=O)(=O)O)cc2ccc(S(=O)(=O)O)cc12`, the TGI is > 100 µM.

In the case of `COC(=O)c1nn2ccc3ccccc3c2c1C(=O)OC`, the TGI was > 100 µM. Take `CCN(CC)CCC1(C2CCCCC2)CCC(=O)NC1=O` (stereo not given): the TGI is > 100 µM. Still for that read-out and setting: to `CC/C(=N/O)c1ccc2[nH]c3c(C)cc([N+](=O)[O-])c(C)c3c2c1` belongs > 100 µM; to `CC1=C(C(=O)NCc2ccccc2)C(c2ccccc2C)C(C(=O)NCc2ccccc2)=C(C)N1`, 99.5 µM; to `COc1ccccc1-n1c(N)c2c(C)c(-c3ccccc3)[nH]c2nc1=S`, > 100 µM.

As for `Cc1c(-c2ccc(O)cc2)oc(=O)c2ccc(O)cc12`, the GI50 is 39.3 µM and the TGI was > 100 µM. As for `CC1(C)S[C@H](CN)N[C@H]1C(=O)OC(c1ccccc1)c1ccccc1`, the TGI was > 100 µM.

Take `CCOC(=O)N(C)C(=C(F)F)C(F)(F)F`: the TGI was > 100 µM. Same read-out and setting: to `CSc1nn(C)cc2nc(C)nc1-2` belongs > 100 µM. On the same count and under the same terms, the value for `COc1cccc(/C=N/[N-]C(N)=O)c1[O-].[Ni+2].[OH3+]` was 2.53 µM. With `COc1cc(/C=C/C(=O)/C=C/c2cc3ccc(Cl)cc3n(Cc3ccccc3)c2=O)ccc1O`, the GI50 was 2.42 µM and the TGI amounted to 7.54 µM. For `O=C1C=CC(=Nc2cccc3c(N=C4C=CC(=O)O4)cccc23)O1`, the TGI is > 100 µM. `Clc1ccc(Nc2nc(Nc3ccccc3)nc(Nc3ccc(-c4cc(-c5ccc(Cl)cc5)on4)cc3)n2)cc1`: the GI50 was 31.5 µM and the TGI was > 100 µM. Take `NC(=O)c1nnsc1NN=O`: the TGI was > 100 µM. The same measure, in the same setting: the value for `Nc1nnc(CCC(=O)Nc2cc(Cl)ccc2Cl)n1N` was > 100 µM. The same measure, in the same setting: to `C[C@@H]1O[C@]2(O)[C@@H]3CCCN3S(=O)(=O)CCN2C1=O` belongs > 100 µM; to `O=c1cc(NNc2ccccc2F)[nH]c(=O)[nH]1`, > 100 µM. On the same count and under the same terms, the value for `CC1(C)OCN(c2ccc(S(N)(=O)=O)cc2)Cn2c1nc1ccccc12` was > 100 µM.

For `OCc1ccc(N2CCc3cc(F)ccc3C2)cc1Cl`, the GI50 is 2.18 µM and the TGI came to 12.2 µM. In the case of `CC1=C[C@@H](C)C[C@]2(C)CC[C@H](O2)[C@]23CC[C@](CO)(C[C@H](O2)[C@@H]2O[C@@](C)(CC2=O)[C@@H](O)[C@H]2CC[C@@]4(CCC[C@@H](O4)[C@H](C)C(=O)O[C@H]4C[C@H]([C@]5(O)OCC[C@H](C)[C@@H]5O)O[C@H]4C=C1)O2)O3`, the TGI is > 10 µM. On to `Nc1nnnc2nc[nH]c12`, for which the GI50 is 0.544 µM and the TGI is > 39.3 µM. With `CN(C)CCn1cnc2ncccc2c1=O`, the TGI is > 100 µM. `CC(C)[Si]1(C(C)C)OCC2OC(n3c(C(=O)c4ccccc4)cc(=O)[nH]c3=O)CC2O[Si](C(C)C)(C(C)C)O1` (stereo not given) yielded a TGI of 22.7 µM. With `CN(C)C(=O)NC(=S)N(C)C`, the TGI is > 100 µM. Still for that read-out and setting: the value for `N=c1ccc2nc(N)nn(O)c-2c1` was > 100 µM. With `COc1ccc2nc(-c3ccccc3)cc(Nc3cccc(C(C)=O)c3)c2c1`, the GI50 was 16.6 µM and the TGI was determined as 33.9 µM.

`COc1ccc2nc3cc([N+](=O)[O-])ccc3c(NNc3ccccc3)c2c1`: the GI50 was 19.6 µM and the TGI was > 100 µM. Regarding `O=C1C2c3[nH]c4ccccc4c3C3CCCCCC3C2C(=O)N1c1ccccc1` (stereo not given), the TGI was > 100 µM. The same measure, in the same setting: the value for `COC(=O)C1=C(OC(=O)/C=C/c2ccc(Cl)cc2)C(C(=O)OC)[C@]2(O)[C@@H](C(=O)OC)[C@H]1C[C@@H](c1ccccc1)[C@@H]2C(=O)OC` (stereo not given in full) was > 100 µM. The same measure, in the same setting: to `O=S(=O)(c1ccccc1)N1CN2CN(C1)CN(S(=O)(=O)c1ccccc1)C2` belongs > 100 µM; to `CC(=O)OCC1OC(n2c(N)c(C#N)c(C)c(C#N)c2=S)C(OC(C)=O)C(OC(C)=O)C1OC(C)=O` (stereo not given), > 100 µM; to `COc1ccc(-n2c3c(c4cc(O)ccc42)Cc2ccccc2C3=O)cc1`, > 100 µM. Regarding `O=C(Nc1ccccc1C(F)(F)F)c1ccc(NC2=C(Cl)C(=O)N(Cc3ccccc3)C2=O)cc1`, the GI50 is 31.4 µM and the TGI is > 100 µM. For the compound `COc1cc(C2SCC(=O)N2c2ccc(NC(C)=O)cc2)cc(OC)c1OC` (stereo not given), the TGI is > 100 µM. Still for that read-out and setting: the value for `C[C@@H]1CCC2C(C)(C)C(/C=C\C=O)C3(C)OC213` (stereo not given in full) was > 100 µM.

As for `COc1cc(C2c3[nH]c4ccccc4c3[C@@H](Nc3ccc(C#N)cc3)[C@H]3COC(=O)N23)cc(OC)c1O` (stereo not given in full), the TGI is > 4.77 µM. Take `COc1ccc(-c2nn(-c3ccc(NC(=O)c4cc(Cl)cc(Cl)c4)cc3)cc2-c2ccncc2)cc1Cl`: the GI50 was > 100 µM and the TGI was > 100 µM. With `C#CCNC(=O)NCCCCC(NC(C)=O)C(=O)NCc1ccccc1` (stereo not given), the TGI was > 100 µM. On the same count and under the same terms, to `COc1cc2c(cc1O)CN1CCC23C=C[C@@H](O)CC13` (stereo not given in full) belongs > 100 µM. In the case of `COc1ccc(Cl)cc1Nc1nc(C(F)(F)F)ccc1C(=O)N/N=C/c1cccnc1`, the GI50 is 1.69 µM and the TGI is > 100 µM. `CCN(CC)C(=S)SC1C(=O)NC(=O)NC1=O`: the TGI was > 100 µM. As to `CCCCCCNC(=S)N/N=C(\C)c1ccccn1`, the TGI was found to be 23.2 µM.

As for `COC1OC(CBr)C(OC(=O)c2ccccc2)C(OS(=O)(=O)c2ccc(C)cc2)C1Br` (stereo not given), the TGI is > 100 µM. Same read-out and setting: the value for `CC(NC1CCCC[C@H]1O)c1ccccc1` (stereo not given in full) was > 100 µM. The same measure, in the same setting: to `COc1cc(COC(=O)N2CC=CC2C(=O)O)c([N+](=O)[O-])cc1OC` (stereo not given) belongs > 100 µM; to `CC(=O)C1(C)CC(C#N)(C#N)C(C#N)=C1N` (stereo not given), > 100 µM. For `COc1ccc(C(=O)O[C@H]2[C@H](O[C@H]3[C@@H](O)COC(O[C@H]4C[C@H]5[C@@H]6CC=C7C[C@@H](O)CC[C@]7(C)[C@H]6CC[C@]5(C)[C@H]4[C@H](C)C(=O)CCC(C)C)[C@@H]3OC(C)=O)OC[C@@H](O)[C@@H]2O)c(C)c1` (stereo not given in full), the GI50 was 10.7 µM and the TGI was 30.7 µM. With `COc1ccc2c(c1)[n+](=O)c(C(=O)C/C(=N/NC(=O)C[N+](C)(C)C)C(=O)Nc1cccc(C)c1C)c(C)n2O`, the TGI is > 100 µM.

For the compound `O=S(=O)(O)c1ccc2c(N=Nc3ccc(N=Nc4ccccc4)cc3)c(O)c(S(=O)(=O)O)cc2c1`, the TGI is > 100 µM.
